Data as given in the supplement of paper PMC3334620.
Whole data set: some 33,000 sequences, median “E-score (-0.5 to 0.5)” near -0.017, cut for the highest 2% near 0.3. The list shows a part of the results.

Target: T1, Sut1 (UniProt P53032)
T1 sequence: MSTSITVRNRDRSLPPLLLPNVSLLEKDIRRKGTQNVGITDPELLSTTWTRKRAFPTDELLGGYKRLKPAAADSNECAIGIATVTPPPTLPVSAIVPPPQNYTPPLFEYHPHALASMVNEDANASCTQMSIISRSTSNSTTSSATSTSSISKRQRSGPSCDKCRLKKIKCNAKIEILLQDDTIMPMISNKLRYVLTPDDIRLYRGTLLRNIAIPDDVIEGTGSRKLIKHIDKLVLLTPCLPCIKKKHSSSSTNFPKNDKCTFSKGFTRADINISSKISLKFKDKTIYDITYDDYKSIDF
Assay: PBM E-score (8-mer binding enrichment) (E-score (-0.5 to 0.5)); higher = stronger / more preferred TF binding; most listed sequences are background and not binding sites
Details: protein concentration: 200 nM; construct: GST-full length
Procedure, shortened: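 Yeast transcription factors, full-length or as DNA-binding domains, were expressed with a GST tag using PURExpress in vitro transcription/translation. At about 100-200 nM they were applied to universal all-10-mer Agilent arrays, double-stranded by primer extension on fresh or once-stripped slides. Fluorescent anti-GST detected bound protein, and masliner normalised the scans. E-scores for ungapped eight-base words, pooled with reverse complements, came from the Universal PBM Analysis Suite.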

Sequence | PBM E-score
ACATAACC | 0.121
ATTTGGTC | 0.0537
AACCAACT | 0.116
GTAGAGAC | -0.0714
GCTGTTAC | -0.193
CACTACCA | 0.0415
AAGTGTGC | -0.0417
GGTCTAAC | -0.0757
CATGGAGG | -0.335
GCCTGGTA | -0.156
ACCACACG | -0.144
CTAGCGCC | -0.167
AACCCCTT | -0.0441
CGGCTATA | 0.0266
AGTGCGCC | -0.179
TCGATTAA | 0.206
CTTACCTA | 0.0125
GACTCGAC | -0.0914
CAAGCACC | -0.206
CTCCAAAA | -0.0606
AGTTTCTA | 0.0689
GCCGAGAA | 0.143
CTTTCAGC | 0.0684
CCTCGTTA | -0.0601
CGCACTTC | -0.0386

Sequence | PBM E-score
AAATTACA | 0.297
CTTATATA | 0.334
GTCAAATA | 0.143
GCGGCTTA | -0.0978
CAACTAGA | 0.0952
AAGATATC | 0.0379
GAGTAGGA | 0.207
CTATTTGC | 0.0258
CAACGTCC | -0.158
AAGATTTG | -0.0896
GATGATGA | 0.0751
GTAGCCAC | -0.0913
ATTACTCC | 0.318
AAGATTGT | 0.123
AACTGCGC | -0.165
AGGGGAAA | -0.0626
AATTGGCG | 0.0284
CCGTGACG | -0.0388
CTATGTTA | 0.173
CTTCAGAC | -0.00463
CATGTACA | -0.0514
CCGTTTAC | -0.0358
GATTAGAA | 0.0478
ATGACCTC | -0.244
AATGGTCT | 0.113

Sequence | PBM E-score
AGCATGAA | 0.0511
CTCGCATC | -0.077
GGGCAAGA | 0.0388
ACTCAGCG | -0.159
GCGTACAA | -0.0821
CACGGCTC | -0.0352
ACTATGCG | 0.0167
CGACTAAC | 0.102
GAACCCCA | -0.107
ACTTGAAA | 0.126
CCCATTCA | -0.0208
ATACAACC | -0.0784
ACCGATGA | 0.0542
CGTTTGGC | 0.0466
CACGTAGA | -0.054
ATGGCCGC | -0.139
AGGTTGTG | -0.0247
CACATTTA | 0.152
CAGAAAGA | 0.102
CCGGGTCA | -0.0212
TGAAATCA | 0.123
CCTACCAG | -0.282
GCATACTA | -0.0622
CCTAGCTA | -0.269
CCTGGGCG | -0.293

Sequence | PBM E-score
GGAGCTCC | 0.221
AACAAGGA | -0.0508
CGAGTGCC | -0.234
ATTTATCG | 0.191
GAGTTTGA | 0.148
ACCGTTAA | 0.0212
CATATACG | 0.116
ACCTGGCC | -0.119
ACGGAAAC | 0.0512
CGTTCATA | 0.137
CAACCTGA | -0.121
CATGCCGC | 0.0558
CACGATAA | 0.25
ACATCTTC | 0.0267
AAGAGGCT | -0.196
GGTCGGCA | -0.187
TCCCTAGA | -0.00999
GATCGCGC | -0.224
TAGTGGCA | -0.177
AAAGGCAG | 0.047
TCAACGGA | 0.246
CAACGATC | 0.0206
ATAGAACG | 0.0867
TACGCAAA | -0.125
ATCATCGA | 0.14

Sequence | PBM E-score
AGTCGAGA | 0.113
AATTAGAC | 0.151
ATCCGGCA | -0.166
ATTGGTCA | -0.216
AGGAGCGA | -0.00713
ATGACTAG | 0.0157
AGGGACCG | -0.139
AGATATCG | 0.0331
AGTAGTAA | 0.164
CGACGGGA | 0.0318
CTCTTGAA | -0.025
CACTGTGA | -0.119
AGCTGATC | -0.0638
GCGATTCA | -0.137
CTCTCGAC | -0.152
GCCCTCTA | -0.223
AGCATAAT | 0.206
ACGCTCAG | -0.155
GCAGGGCA | -0.0948
CAGTTACA | 0.0716
AAAACATG | 0.064
CACATCCG | 0.0923
GAATCCCC | -0.175
GCAAGAGC | -0.144
CGATGACG | -0.18

Sequence | PBM E-score
ACTCAGTC | -0.0209
GCCAGTCA | -0.182
CGGTACAG | -0.0311
CCGATCTC | 0.0158
AGTGAATC | 0.0271
CGGTTAAG | 0.117
AAGGACCT | -0.0841
AGGTTCAC | -0.154
AGCGAGCT | 0.0152
CGCGTGAG | 0.0649
AAACTACT | 0.199
GACCGGTA | -0.182
GCTAGTAA | 0.0423
ACTCCAGG | 0.00411
GAGTTCGC | 0.0136
AGTGTATA | -0.0309
CAATCTAA | 0.0494
AACGGAGA | 0.359
ATATCGCG | 0.0948
CGTTGATC | -0.0712
GAGGAGCC | -0.0488
CCTAGCCC | -0.128
AAAGATGT | 0.047
CACAGGCA | -0.147
ACTGTGGC | -0.348

Sequence | PBM E-score
ACGCGTGA | 0.00536
GGCAGTCA | -0.04
CAAGGCTG | -0.151
CATTCACC | 0.0184
CGTGCGTC | 0.0632
CCTAAAAG | -0.243
CAGGAAAG | -0.137
GGTAACTA | 0.122
CGGCCGGC | -0.11
AACGTACA | 0.0151
CTCCACTC | -0.144
CGCCTTAG | -0.176
CACAGGGA | -0.237
CGTTCGGA | 0.385
CAGAAACC | 0.00134
AACGCCCA | -0.0199
AGCTGTCA | 0.00752
AACGGCTC | 0.18
CAACGTGC | -0.132
AGCACCAT | -0.315
CTCCGTCC | 0.307
ATATAGCG | -0.00599
